In patent publication US6392045B1, “9-azobicyclo[3.3.1] non-2-ene derivatives as cholinergic ligands at nicotinic ACH receptors” (NeuroSearch A/S, priority 1997, dated 2002) one finds melting point data, which are given here for one molecule.

What is called melting point is the temperature, or range, at which the solid turns liquid.

Read-outs that look alike come from different tables or passages of the source. Entries with a single value are a further part of the results.

As for `CN1C2C=C(c3cc4ccccc4s3)CC1CCC2` (racemic) [Compound 7a, (±)-3-(2-Benzothienyl)-9-methyl-9-azabicyclo[3.3.1]non-2-ene], the melting point is, setting by setting: (free base prepared by method A) 91.3 to 93.5 °C; (free base prepared by method C) 83.2 to 85.4 °C.
